Where “and” joins values, the source holds several entries; their conditions need not be identical. Equal entries are not always repeated.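 In this assay, cells in 96-well plates receive the compound at five concentrations for 48 hours. Endpoints are linearly interpolated between the surrounding concentrations. Here, GI50 denotes the concentration required for 50% inhibition of growth. Definition used: TGI = concentration required for complete inhibition of growth.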
These compounds were tested on NCI-H322M lung (assay: DTP human tumour cell line panel, 48 h).
With `O=C(O)CSc1nc2ccccc2[nH]1` the TGI was greater than 100 µM.
In the case of `N#CCC(=O)N/N=C(/C(=O)Nc1ccccc1)C1C(=O)N(c2ccccc2)N=C1N` (stereo not given), the TGI is reported as greater than 100 µM.
In the case of `CCOC(=O)C(CC(C)C)NC(=O)C(N)Cc1ccc(N(CCCl)CCCl)cc1` (stereo not given), the TGI is reported as 50.2 µM.
`CCC1CN2CCc3cc(OC)c(OC)cc3C2CC1CC1c2cc(OC)c(OC)cc2CCN1C(=O)C(Cc1c[nH]c2ccccc12)NC(=O)OC(C)(C)C` (stereo not given) showed a TGI of 16.6 µM.
In the case of `CNC(=O)Nn1c(SC)nc2ccccc21`, the TGI is reported as greater than 100 µM.
For `O=c1n(Cc2ccccc2)c2ccccc2n1CC1CS1` (stereo not given), the TGI was greater than 100 µM.
For `Fc1ccc(-c2nn3c(COc4ccccc4Cl)nnc3s2)cc1Oc1ccccc1`, the GI50 was 22.7 µM and the TGI was 54.9 µM.
`C=CCC1=C2CCCCC2CCC1=O` (stereo not given) gave a TGI greater than 100 µM.
Work on `COc1ccc(NS(=O)(=O)c2ccc3ncn(NS(=O)(=O)c4ccc(I)cc4)c(=O)c3c2)cc1` yielded a TGI greater than 100 µM.
For `Cc1cc(C)c(S(=O)(=O)N(CCCCCCN)OCCCON(CCCCCCN)S(=O)(=O)c2c(C)cc(C)cc2C)c(C)c1`, the TGI was 3.03 µM.
Work on `C/C(CC(O)(C(F)(F)Cl)C(F)(F)Cl)=N\Nc1ccccc1` yielded a TGI greater than 100 µM.
With `COC(=O)c1oc([N+](=O)[O-])c(-c2ccccc2)c1-c1ccccc1` the TGI was greater than 100 µM.
`O=C(NCCNc1nccc(-c2c(-c3ccc(F)cc3)nc3sccn23)n1)Nc1cccc(C(F)(F)F)c1` gave a GI50 of 12.3 µM and a TGI of 34.1 µM.
For `Cc1cc(C)c2c(=O)cc(-c3ccc(F)cc3)[nH]c2n1`, the TGI was greater than 100 µM.
In the case of `CCOC(=O)Nc1ccc2c3c(cccc13)-c1ccccc1-2`, the GI50 is reported as 5.27 µM and the TGI is reported as greater than 100 µM.
`O=[N+]([O-])c1cccc(C=NC23CC4CC(CC(C4)C2)C3)c1` gave a TGI greater than 100 µM.
Compound `CC[C@H](C)[C@H](NC(=O)[C@H](Cc1ccc(O)cc1)NCC(F)(F)F)C(=O)OC(C)(C)C` has a TGI of 16.5 µM.
In the case of `Oc1c(Nc2ccccc2)cc2c3c1N=NC=3CCN=2`, the TGI is reported as greater than 100 µM.
Work on `CNc1cccc(-c2cc(=O)c3cc4c(cc3[nH]2)OCO4)c1` yielded a TGI greater than 100 µM.
`O=C1NC(=S)NC1C(Cc1ccccc1)c1ccco1` (stereo not given) showed a TGI greater than 100 µM.
`CCOc1ccc(-n2c(=O)c3nn4c(=O)n(-c5ccc(OCC)cc5)c(=O)c4nn3c2=O)cc1` showed a TGI greater than 100 µM.
`COc1cc(C)cc(C(=O)OCc2ccccc2)c1C1=C(Cl)C(=O)C(Cl)=CC1=O` was tested, and the TGI was greater than 10 µM.
Work on `Brc1ccc(N=C/C=C(\Nc2ccc(Br)cc2)C23CC4CC(CC(C4)C2)C3)cc1` yielded a TGI greater than 100 µM.
Work on `COc1ccc(C(=O)O[C@@H]2CCN3CC[C@H](C)[C@H]23)cc1` yielded a TGI greater than 100 µM.
`O=C1CCN(CCC(F)(F)C(F)(F)C(F)(F)C(F)(F)F)C(=S)N1` gave a TGI greater than 100 µM.
`Cc1ccc(S(=O)OC2c3ccccc3Cc3ccccc32)cc1` (stereo not given) showed a TGI of 51 µM.
`COC(=O)CC12CC(NC(=O)c3csc([C@@H](C[C@H](C(C)C)N(C)C(=O)[C@@H](NC(=O)[C@H]4CCCCN4C)C(C)C)OC(C)=O)n3)(C1)C2` was tested, and the GI50 was 0.00407 µM and 0.0153 µM and the TGI was greater than 33.3 µM.
For `CCOc1ccc(N=C2NC(=O)C(CC(=O)Nc3ccc(Cl)cc3Cl)S2)cc1` (stereo not given), the TGI was greater than 100 µM.
Work on `CCCCN(CCCC)C(=O)C(=O)C(C(=O)C(=O)OC)c1nc2ccccc2o1` (stereo not given) yielded a TGI greater than 100 µM.
Work on `COC(=O)CCC(=O)C(CC(=O)OC)C(=O)CCC(=O)NCCc1ccccc1` (stereo not given) yielded a TGI greater than 100 µM.
`O=c1[nH]ncc2[nH]c(-c3ccccc3)cc12` was tested, and the TGI was greater than 100 µM.
For `C#CCOCCCC(=O)O`, the TGI was greater than 100 µM.
Compound `C=CC[C@H](O)[C@@](NC(=O)OCc1ccccc1)(Sc1ccc(C)cc1)C(F)(F)F` has a TGI greater than 100 µM.
`CC(=O)NS(=O)(=O)c1ccc(-n2nc(-c3ccccc3)cc2-c2cc(O)ccc2O)cc1` was tested, and the GI50 was greater than 100 µM and the TGI was greater than 100 µM.
With `O=C(Nn1c(-c2ccccc2)nc2ccccc2c1=O)c1ccc([N+](=O)[O-])cc1` the TGI was greater than 100 µM.
For `CC[C@@]1(O)C(=O)OCc2c1cc1n(c2=O)Cc2cc3c(OC)cccc3nc2-1`, the TGI was greater than 30.3 µM.
`Cc1cc2c(=O)cc(-c3ccc(Cl)c(Cl)c3)oc2c(C(=O)O)c1C` showed a TGI greater than 100 µM.
`O=P1(O)c2ccccc2CSCc2ccccc21` was tested, and the TGI was greater than 100 µM.
`COc1ccc(/C=C/C(=O)c2ccc(B(O)O)cc2)cc1O` showed a GI50 of 26.1 µM and a TGI greater than 82.7 µM.
In the case of `CO[C@@H]1C[C@H]2[C@@H]3CC[C@H]([C@@H](C)COC(C)=O)[C@@]3(C)CC[C@@H]2[C@@]2(C)CC[C@H]3C[C@]312`, the TGI is reported as 34.3 µM.
In the case of `COc1cc(CN(C)N2C(=O)c3cccc4cc([N+](=O)[O-])cc(c34)C2=O)cc(OC)c1OC`, the TGI is reported as greater than 100 µM.
`CN1C[C@@H]2CC(=O)CC[C@@H]2C[C@H]1C#N` gave a TGI greater than 100 µM.
With `CC(=O)Nc1ccc(S(=O)(=O)N/N=C/c2cc(I)cc([N+](=O)[O-])c2O)cc1` the TGI was greater than 100 µM.
Compound `ClCc1nnc2n1-c1ccc(Cl)cc1SC2` has a TGI of 23.9 µM.
With `S=c1sc2sc(=S)sc2s1` the TGI was greater than 100 µM.
For `CC1=CC=C2C(C)(C)CC[C@@H]3OC(=O)[C@H]1[C@]23C`, the TGI was greater than 100 µM.
In the case of `COc1ccccc1NC(=S)NNC(=O)c1cc(-c2ccccc2)nc2ccccc12`, the TGI is reported as 55.4 µM.
`O=C(/C=C/c1cccnc1)c1ccccc1` gave a GI50 of 13.7 µM and a TGI of 27.3 µM.
`CCN(CC)CCC1CCCCN1CC(=O)N1c2ccccc2NC(=O)CC1C` (stereo not given) was tested, and the TGI was greater than 100 µM.
`CC12OC(C(=O)C13CC3)C1C(=O)c3cccc(O)c3C(=O)C12` (stereo not given) was tested, and the GI50 was 14.4 µM and the TGI was greater than 47 µM.
`Cc1ccc(C2=NN=C3C(c4ccccc4)=Nc4ccccc4N3C2)cc1` showed a TGI greater than 73.3 µM.
With `COc1ccc(-c2cc(=O)c3cc4c(cc3[nH]2)OCO4)c(OC)c1` the TGI was greater than 100 µM.

From PubChem BioAssay (NCI)
